Measurements reported in patent US20050196808A1 (published 2005).
Where a chain is given by its changes, count along the chain named. No constants are given. Whether binding was seen depends on the method and setting. For part of these data: Binding seen in cells or lysates may run through a third protein. Some entries that bind do so weakly or less than the wild type. For part of these data: Sequences can lack the tags named with a protein.

Protein sequences, listed by entry. Tags and fused reporters are not part of them. Lines headed by an entry give the natural chain unless they say otherwise; changes in a name come on top.
UniProt P53350: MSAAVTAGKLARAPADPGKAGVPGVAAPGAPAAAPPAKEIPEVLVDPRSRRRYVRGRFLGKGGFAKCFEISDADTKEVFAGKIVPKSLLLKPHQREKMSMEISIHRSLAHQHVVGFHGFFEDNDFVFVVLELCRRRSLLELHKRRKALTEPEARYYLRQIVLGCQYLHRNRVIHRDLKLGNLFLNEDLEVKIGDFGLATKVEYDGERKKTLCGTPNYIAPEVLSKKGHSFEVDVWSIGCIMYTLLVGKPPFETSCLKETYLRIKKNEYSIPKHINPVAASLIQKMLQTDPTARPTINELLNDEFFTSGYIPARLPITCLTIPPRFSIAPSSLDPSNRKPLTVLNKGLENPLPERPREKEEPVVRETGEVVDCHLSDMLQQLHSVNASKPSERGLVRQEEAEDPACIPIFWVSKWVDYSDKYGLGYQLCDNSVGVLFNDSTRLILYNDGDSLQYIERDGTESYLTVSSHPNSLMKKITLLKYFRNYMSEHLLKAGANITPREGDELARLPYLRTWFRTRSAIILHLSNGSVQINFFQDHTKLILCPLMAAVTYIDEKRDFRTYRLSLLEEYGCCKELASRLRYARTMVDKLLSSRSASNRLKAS

Columns and labels:
[1] = molecular target: T1, HA-tagged Cdc25C Thr130Ala (human) (UniProt P30307); assay: GST pull-down from nocodazole-arrested transfected HeLa lysates, blot α-HA
T1 sequence (mitotically phosphorylated (incompletely), looked up): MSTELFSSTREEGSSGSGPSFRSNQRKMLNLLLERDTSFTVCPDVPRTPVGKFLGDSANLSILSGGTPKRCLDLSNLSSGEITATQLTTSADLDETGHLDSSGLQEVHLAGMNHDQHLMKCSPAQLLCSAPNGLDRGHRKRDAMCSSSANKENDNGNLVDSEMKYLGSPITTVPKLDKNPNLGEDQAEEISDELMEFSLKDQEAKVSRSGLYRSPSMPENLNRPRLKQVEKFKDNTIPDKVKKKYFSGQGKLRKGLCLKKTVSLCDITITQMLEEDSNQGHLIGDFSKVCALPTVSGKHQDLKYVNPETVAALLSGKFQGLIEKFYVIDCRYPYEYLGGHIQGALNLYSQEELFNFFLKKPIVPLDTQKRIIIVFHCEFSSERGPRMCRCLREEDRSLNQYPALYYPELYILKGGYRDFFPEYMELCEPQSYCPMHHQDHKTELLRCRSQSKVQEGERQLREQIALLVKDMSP

[2] = molecular target: T2, HA-tagged Cdc25C Ser129Val (human) (UniProt P30307); assay: as above
T2 sequence (mitotically phosphorylated (incompletely), looked up): T1 sequence (mitotically phosphorylated (incompletely), looked up) with S129V, A130T

[3] = molecular target: T1, HA-tagged Cdc25C Thr130Ala (human); assay: GST pull-down from transfected nocodazole-arrested HeLa cells, anti-HA blot
[4] = molecular target: T2, HA-tagged Cdc25C Ser129Val (human); assay: as above
[5] = molecular target: T3, PoloBoxtide with phosphotyrosine substituted for phosphothreonine; assay: condition: no detectable binding by ITC for a Plk-1 PBD concentration of at least 150 µM; ITC
T3 sequence (peptide, phosphotyrosine at 8): MAGPMQSYPLNGAKK

[6] = molecular target: T4, PoloBoxtide with Ser at pThr-1 replaced with Thr; assay: condition: no detectable binding for a Plk1 PBD concentration of at least 150 µM; ITC
T4 sequence (peptide, phosphothreonine at 8): MAGPMQTTPLNGAKK

[7] = molecular target: T5, PoloBoxtide with Ser at pThr-1 replaced with Gly; assay: as above
T5 sequence (peptide, phosphothreonine at 8): MAGPMQGTPLNGAKK

[8] = molecular target: T6, PoloBoxtide with Ser at pThr-1 replaced with Ala; assay: as above
T6 sequence (peptide, phosphothreonine at 8): MAGPMQATPLNGAKK

[9] = molecular target: T7, PoloBoxtide with Ser at pThr-1 replaced with Cys; assay: as above
T7 sequence (peptide, phosphothreonine at 8): MAGPMQCTPLNGAKK

Measured: binding

GST-Plk-1 PBD (residues 326-603) (from UniProt P53350 326-603)
binds: [1] | [2] | [3] | [4]

Plk-1 Polo-box Domain (PBD, residues 326-603) (from UniProt P53350 326-603)
no binding: [5] | [6] | [7] | [8] | [9]
